# Data from the supplement of paper PMC11417369.
# ± gives the standard deviation of the averaged measurements. The list shows a part of the results.
# System: PfAP2-I AP2 domain 3 (GST-tagged)
# Test: gcPBM binding intensity (ln(normalized median fluorescence intensity)); higher = stronger DNA binding
# Method in brief: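 Binding intensity is defined as the maximum Masliner-normalised natural-log median intensity across replicate spots for either probe orientation. It was measured on an Agilent 4 × 180k array of primer-extended double-stranded 36-bp intergenic genomic probes and negative controls, to which GST-tagged P. falciparum DNA-binding domains made in E. coli were applied for 1 h in 1× PBS with 1% milk, 0.2 mg/ml BSA, 0.5% salmon testes DNA and 0.03% Triton X-100. Detection was by Alexa488 anti-GST antibody and scanning at 488 nm.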
row,Sequence,gcPBM binding intensity (ln)
1,TATATATTTTATTATTGTACGAATTATTTATTTTAC [XGTACX_site8105],7.6 ± 0.42
2,TTTTTTCTAATATCTTTGCCTTTTTCTTTATTTATT [CACACA_negctrl_site1053],7.65 ± 0.82
3,TGTATAAAACATGGGTGTACTGAACTCAATCATATA [XGTACX_site1215],7.84 ± 0.4
4,AAAATAACAAAATAAAGTACTTTTAAAAGATATAAT [XGTACX_site7632],7.87 ± 0.6
5,AAAAGTAACAAAGCTACACACATTTAAATAAACATA [CACACA_site1421],7.59 ± 0.57
6,TTTTTAATTCAAACAATAATATGTTATATTTCAAAT [TGCATGCA_negctrl_site27],7.51 ± 0.19
7,GATTTTCTAATTTCTACACACATATAAGAATATTCA [CACACA_site7340],7.8 ± 0.54
8,TTTATTTCTATATTTACATGCAAAGGGTTAGTTATA [TGCATGCA_site983],7.63 ± 0.47
9,AAGAAAAAGAATAGACGGACAACTAATATAAAATAT [XGTACX_site7905],7.79 ± 0.73
10,GATCTTTTTTTTCTTACTTTACAATTTTTTTTTTAC [XGTACX_negctrl_site101],7.83 ± 0.94
11,TTTTTTTTTTTCATGTGTACATATATTTTCACTTTA [XGTACX_site4475],8.21 ± 0.62
12,GTTTTACACAGACATGCATGTGAAAATTTGATGGTA [TGCATGCA_site308],7.87 ± 0.56
13,TATCATCATGTATGTACACACATACCTATATTATGT [CACACA_site6768],7.78 ± 0.47
14,AATTAAATTACTTATACACACATAAAATGTCTGTAT [CACACA_site997],7.76 ± 0.34
15,AAATTATGAACATATTGTACATATATATATATATAT [XGTACX_site8269],9.12 ± 0.26
16,CATGTATGTACCATGGTGCAACAATATTTTTAACAA [GTGCAC_site9597],10.3 ± 0.38
17,ATTATATAAATTATATGTACGTATTTTTTTTTTTTT [XGTACX_site1908],8.1 ± 0.085
18,CAAATAAAAATAAGGAGTACAATTAAAAAAGGAAGG [XGTACX_site4366],8.03 ± 0.64
19,GAAAAGAAAAATAAACGTACATAAATATTAACATTA [XGTACX_site8213],7.47 ± 0.56
20,AAAATAAAAAAGTGTACACATATTAAAATGTATTTA [CACACA_site4424],8.15 ± 0.11
21,TCATTGTTAAGCTGAAGTACTTATAATTACATCGAG [XGTACX_site6340],7.75 ± 0.35
22,AATATATTTTAATATACACACATATCTGCTCTTTAA [CACACA_site6130],7.67 ± 0.5
23,TAAAATTATATAAAGGAACACACATTTTATTTTATT [CACACA_site8423],7.66 ± 0.57
24,TATTAGCATGTTATTACACACAATATAAAATATATA [CACACA_site1401],7.86 ± 0.38
